Measurements taken from PMC5897033.
These are yes or no findings as the source states them, for the method shown. Some entries that bind do so weakly or less than the wild type. Where a sequence is shown, tags or fusion partners need not be part of it.

Tests used:
Test in all cases: two-hybrid; Gal4 system (Clontech), pGBKT7 (BD) and pGADT7 (AD) fusions, yeast strains AH109 and Y187; growth on -LWH (weak) and -LWHA (strong)
[1] = target: T1, human DMC1, yeast two-hybrid fusion (human) (UniProt Q14565)
T1 sequence: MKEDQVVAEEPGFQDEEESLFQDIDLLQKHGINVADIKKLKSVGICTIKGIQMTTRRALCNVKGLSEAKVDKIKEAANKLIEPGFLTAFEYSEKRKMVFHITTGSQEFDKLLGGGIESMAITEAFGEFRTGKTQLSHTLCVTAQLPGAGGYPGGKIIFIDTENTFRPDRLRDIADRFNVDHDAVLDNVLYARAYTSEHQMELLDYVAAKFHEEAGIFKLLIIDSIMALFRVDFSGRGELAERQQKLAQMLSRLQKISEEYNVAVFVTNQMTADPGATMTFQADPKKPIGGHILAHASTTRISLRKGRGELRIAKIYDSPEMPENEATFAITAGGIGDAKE

[2] = target: T2, human FIGNL1, yeast two-hybrid fusion (human) (UniProt Q6PIW4)
T2 sequence: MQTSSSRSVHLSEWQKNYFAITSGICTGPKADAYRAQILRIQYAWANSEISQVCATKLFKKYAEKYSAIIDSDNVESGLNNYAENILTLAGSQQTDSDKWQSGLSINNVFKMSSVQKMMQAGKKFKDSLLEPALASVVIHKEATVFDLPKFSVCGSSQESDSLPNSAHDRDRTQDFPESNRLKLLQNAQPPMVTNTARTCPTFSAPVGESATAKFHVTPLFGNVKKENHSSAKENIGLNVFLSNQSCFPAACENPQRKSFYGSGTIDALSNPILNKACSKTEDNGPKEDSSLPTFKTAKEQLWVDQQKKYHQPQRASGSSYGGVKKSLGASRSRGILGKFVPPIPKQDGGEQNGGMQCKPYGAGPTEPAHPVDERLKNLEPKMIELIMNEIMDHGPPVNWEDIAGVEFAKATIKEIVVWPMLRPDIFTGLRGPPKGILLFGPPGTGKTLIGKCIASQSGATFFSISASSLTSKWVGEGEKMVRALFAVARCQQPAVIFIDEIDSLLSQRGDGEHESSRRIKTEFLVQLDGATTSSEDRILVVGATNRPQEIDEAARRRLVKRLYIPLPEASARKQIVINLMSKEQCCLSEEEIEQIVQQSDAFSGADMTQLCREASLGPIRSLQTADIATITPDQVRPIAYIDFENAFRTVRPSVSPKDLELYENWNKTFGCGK

[3] = target: T3, human FLIP (C1ORF112), yeast two-hybrid fusion (human) (UniProt Q9NSG2)
T3 sequence: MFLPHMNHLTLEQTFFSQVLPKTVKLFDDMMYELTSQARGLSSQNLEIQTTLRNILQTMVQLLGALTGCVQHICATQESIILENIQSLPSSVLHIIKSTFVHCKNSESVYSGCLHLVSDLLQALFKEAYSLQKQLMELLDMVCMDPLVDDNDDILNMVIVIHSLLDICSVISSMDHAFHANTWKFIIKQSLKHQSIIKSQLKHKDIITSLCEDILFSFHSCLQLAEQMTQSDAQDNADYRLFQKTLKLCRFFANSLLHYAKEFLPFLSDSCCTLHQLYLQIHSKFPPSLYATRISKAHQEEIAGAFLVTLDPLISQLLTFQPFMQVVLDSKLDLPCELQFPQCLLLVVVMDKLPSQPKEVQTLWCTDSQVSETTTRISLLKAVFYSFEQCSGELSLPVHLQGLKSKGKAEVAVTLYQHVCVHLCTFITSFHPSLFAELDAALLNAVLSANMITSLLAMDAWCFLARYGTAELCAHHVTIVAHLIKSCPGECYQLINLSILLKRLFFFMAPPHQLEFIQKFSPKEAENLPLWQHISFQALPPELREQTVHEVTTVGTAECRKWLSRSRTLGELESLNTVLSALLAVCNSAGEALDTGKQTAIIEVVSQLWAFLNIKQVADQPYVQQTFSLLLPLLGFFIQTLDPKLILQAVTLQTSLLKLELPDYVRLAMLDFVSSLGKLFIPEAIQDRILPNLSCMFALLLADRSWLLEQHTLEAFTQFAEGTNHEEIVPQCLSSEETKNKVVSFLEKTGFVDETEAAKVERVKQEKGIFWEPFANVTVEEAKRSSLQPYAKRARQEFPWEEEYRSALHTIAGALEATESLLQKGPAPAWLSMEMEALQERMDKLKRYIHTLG

[4] = target: T4, Arabidopsis RAD51, yeast two-hybrid fusion (Arabidopsis thaliana) (UniProt P94102)
T4 sequence: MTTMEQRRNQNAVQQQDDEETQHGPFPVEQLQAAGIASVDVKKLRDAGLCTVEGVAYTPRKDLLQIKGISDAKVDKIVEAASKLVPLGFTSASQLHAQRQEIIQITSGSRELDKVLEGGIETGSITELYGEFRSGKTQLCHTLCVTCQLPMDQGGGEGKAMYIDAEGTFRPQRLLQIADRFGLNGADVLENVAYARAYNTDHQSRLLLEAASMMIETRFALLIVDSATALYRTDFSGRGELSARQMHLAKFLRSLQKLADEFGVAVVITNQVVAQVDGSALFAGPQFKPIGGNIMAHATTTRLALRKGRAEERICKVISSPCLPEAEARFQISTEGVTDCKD

[5] = target: T5, Arabidopsis DMC1, yeast two-hybrid fusion (Arabidopsis thaliana) (UniProt Q39009)
T5 sequence: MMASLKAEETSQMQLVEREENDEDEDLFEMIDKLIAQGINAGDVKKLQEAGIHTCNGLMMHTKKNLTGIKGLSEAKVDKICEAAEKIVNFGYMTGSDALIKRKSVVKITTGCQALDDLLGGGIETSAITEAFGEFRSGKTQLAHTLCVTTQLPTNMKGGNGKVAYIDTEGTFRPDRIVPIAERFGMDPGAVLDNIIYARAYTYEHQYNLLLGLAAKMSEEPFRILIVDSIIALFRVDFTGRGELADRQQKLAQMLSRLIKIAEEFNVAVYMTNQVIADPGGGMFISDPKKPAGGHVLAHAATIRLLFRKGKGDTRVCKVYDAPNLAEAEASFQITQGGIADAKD

Row | Binder | binding [1] | binding [2] | binding [3] | binding [4] | binding [5]
1 | human FLIP (C1ORF112), yeast two-hybrid fusion (protein, UniProt Q9NSG2 1-853) MFLPHMNHLTLEQTFFSQVLPKTVKLFDDMMYELTSQARGLSSQNLEIQTTLRNILQTMVQLLGALTGCVQHICATQESIILENIQSLPSSVLHIIKSTFVHCKNSESVYSGCLHLVSDLLQALFKEAYSLQKQLMELLDMVCMDPLVDDNDDILNMVIVIHSLLDICSVISSMDHAFHANTWKFIIKQSLKHQSIIKSQLKHKDIITSLCEDILFSFHSCLQLAEQMTQSDAQDNADYRLFQKTLKLCRFFANSLLHYAKEFLPFLSDSCCTLHQLYLQIHSKFPPSLYATRISKAHQEEIAGAFLVTLDPLISQLLTFQPFMQVVLDSKLDLPCELQFPQCLLLVVVMDKLPSQPKEVQTLWCTDSQVSETTTRISLLKAVFYSFEQCSGELSLPVHLQGLKSKGKAEVAVTLYQHVCVHLCTFITSFHPSLFAELDAALLNAVLSANMITSLLAMDAWCFLARYGTAELCAHHVTIVAHLIKSCPGECYQLINLSILLKRLFFFMAPPHQLEFIQKFSPKEAENLPLWQHISFQALPPELREQTVHEVTTVGTAECRKWLSRSRTLGELESLNTVLSALLAVCNSAGEALDTGKQTAIIEVVSQLWAFLNIKQVADQPYVQQTFSLLLPLLGFFIQTLDPKLILQAVTLQTSLLKLELPDYVRLAMLDFVSSLGKLFIPEAIQDRILPNLSCMFALLLADRSWLLEQHTLEAFTQFAEGTNHEEIVPQCLSSEETKNKVVSFLEKTGFVDETEAAKVERVKQEKGIFWEPFANVTVEEAKRSSLQPYAKRARQEFPWEEEYRSALHTIAGALEATESLLQKGPAPAWLSMEMEALQERMDKLKRYIHTLG | binds | binds | binds |  | 
2 | Arabidopsis FIGL1, full length, yeast two-hybrid fusion (protein, UniProt F4JEX5 1-680) MCGSVVSDSEREFEFHFWGFGHLGKEEERIMAGKRSSPFSSPLLRPPPEFLNVKEEGETETPCWRKEVDENLKRLQSLLFGADKFLEKSDFSSAQILGLRLLGFLDSRSVTDADRDFIGPIRREVASKIDLALEGLVSDSDRKAFELANTAPGAIFGSKGGFDVEKIKQSKYFGFHVSQSNGKGVKEMEERHDTDKLIPKAPKSMMQAKLTSLYGNSIGKPDNQRKTSVNNQDRASDECVIVERSHGFGFGTKRPHAETSSLANDGEVKEDGAPNGFVSAKIKLEMDVRQKRGSTESPSSCLSPQSDKNALGRGYGSRSGGLRRGYRSNFVPPVKTNGNNVGNLTSRIGGKTDDALDDSTRTCLEMLCGPDGELPEKLRNLEPRLIEHVSNEIMDRDPNVRWDDIAGLEHAKKCVTEMVIWPLLRPDIFKGCRSPGKGLLLFGPPGTGKTMIGKAIAGEAKATFFYISASSLTSKWIGEGEKLVRALFGVASCRQPAVIFVDEIDSLLSQRKSDGEHESSRRLKTQFLIEMEGFDSGSEQILLIGATNRPQELDEAARRRLTKRLYIPLPSSEARAWIIQNLLKKDGLFTLSDDDMNIICNLTEGYSGSDMKNLVKDATMGPLREALKRGIDITNLTKDDMRLVTLQDFKDALQEVRPSVSQNELGIYENWNNQFGSLSL |  |  |  | binds | binds
3 | human FIGNL1, yeast two-hybrid fusion (protein, UniProt Q6PIW4 1-674) MQTSSSRSVHLSEWQKNYFAITSGICTGPKADAYRAQILRIQYAWANSEISQVCATKLFKKYAEKYSAIIDSDNVESGLNNYAENILTLAGSQQTDSDKWQSGLSINNVFKMSSVQKMMQAGKKFKDSLLEPALASVVIHKEATVFDLPKFSVCGSSQESDSLPNSAHDRDRTQDFPESNRLKLLQNAQPPMVTNTARTCPTFSAPVGESATAKFHVTPLFGNVKKENHSSAKENIGLNVFLSNQSCFPAACENPQRKSFYGSGTIDALSNPILNKACSKTEDNGPKEDSSLPTFKTAKEQLWVDQQKKYHQPQRASGSSYGGVKKSLGASRSRGILGKFVPPIPKQDGGEQNGGMQCKPYGAGPTEPAHPVDERLKNLEPKMIELIMNEIMDHGPPVNWEDIAGVEFAKATIKEIVVWPMLRPDIFTGLRGPPKGILLFGPPGTGKTLIGKCIASQSGATFFSISASSLTSKWVGEGEKMVRALFAVARCQQPAVIFIDEIDSLLSQRGDGEHESSRRIKTEFLVQLDGATTSSEDRILVVGATNRPQEIDEAARRRLVKRLYIPLPEASARKQIVINLMSKEQCCLSEEEIEQIVQQSDAFSGADMTQLCREASLGPIRSLQTADIATITPDQVRPIAYIDFENAFRTVRPSVSPKDLELYENWNKTFGCGK | binds |  |  |  | 
4 | N-terminal region (1-290 amino acids) of hFIGNL1, yeast two-hybrid fusion (domain or fragment, UniProt Q6PIW4 1-290) MQTSSSRSVHLSEWQKNYFAITSGICTGPKADAYRAQILRIQYAWANSEISQVCATKLFKKYAEKYSAIIDSDNVESGLNNYAENILTLAGSQQTDSDKWQSGLSINNVFKMSSVQKMMQAGKKFKDSLLEPALASVVIHKEATVFDLPKFSVCGSSQESDSLPNSAHDRDRTQDFPESNRLKLLQNAQPPMVTNTARTCPTFSAPVGESATAKFHVTPLFGNVKKENHSSAKENIGLNVFLSNQSCFPAACENPQRKSFYGSGTIDALSNPILNKACSKTEDNGPKEDS |  |  | binds |  | 
